Values belong to the binder of their own block, whether it stands above or below them.
Key:
Cyno TfR ECD Avi-His [1] = target: T1, Cyno TfR ECD Avi-His (cynomolgus macaque, UniProt Q5RDH6 89-760 (Pongo abelii entry), biotin on the Avi tag (BirA) where captured on streptavidin); assay: BLI (GatorBio), biotinylated TfR on probe
T1 construct: also called Cyno TfR Avi-His; cyno TfR Avi-His
T1 chain: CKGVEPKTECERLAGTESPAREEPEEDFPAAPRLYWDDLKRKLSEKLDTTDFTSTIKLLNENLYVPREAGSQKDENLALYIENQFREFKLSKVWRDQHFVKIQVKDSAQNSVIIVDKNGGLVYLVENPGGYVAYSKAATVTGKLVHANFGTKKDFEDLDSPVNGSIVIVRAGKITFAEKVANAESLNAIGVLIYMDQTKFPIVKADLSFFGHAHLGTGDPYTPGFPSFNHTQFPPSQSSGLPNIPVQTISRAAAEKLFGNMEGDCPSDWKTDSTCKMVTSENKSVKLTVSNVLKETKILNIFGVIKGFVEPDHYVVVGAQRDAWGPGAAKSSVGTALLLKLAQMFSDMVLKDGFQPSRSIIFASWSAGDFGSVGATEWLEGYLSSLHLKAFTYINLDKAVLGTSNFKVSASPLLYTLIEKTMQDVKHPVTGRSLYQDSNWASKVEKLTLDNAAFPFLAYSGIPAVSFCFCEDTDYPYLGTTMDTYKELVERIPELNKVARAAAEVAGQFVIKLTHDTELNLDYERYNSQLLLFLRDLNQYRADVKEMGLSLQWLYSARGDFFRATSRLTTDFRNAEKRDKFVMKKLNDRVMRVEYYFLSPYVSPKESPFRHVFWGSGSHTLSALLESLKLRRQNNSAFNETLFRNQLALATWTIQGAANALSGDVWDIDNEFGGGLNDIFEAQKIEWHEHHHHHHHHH

Cyno TfR ECD Avi-His [2] = target: T1, Cyno TfR ECD Avi-His; assay: SPR (Carterra LSA), 2+1 immobilised
Protocol: The remaining unconjugated active groups on the chip were then blocked by injecting 1M Ethanolamine pH 8.5 (Carterra) for 7 minutes using the single channel flow cell.
Estimates of affinity were generated by injecting each analyte over the entire antibody array using the single channel flow cell. […] Data were processed and analyzed using NextGenKIT high-throughput kinetics analysis software (Carterra).

B1: TfR15.WH7.1 2+1 anti-TfR bispecific antibody (bispecific antibody, human IgG1, kappa)
heavy 1: EVRLLESGGGLVQPGGSLRLSCAASGFTFSNYAMGWVRQAPGKGLEWVSAISGSGGSTYYADSVKGRFTTSRDDSKNALYLQMNSLRAEDTAVYYCARGGPGWYAADVWGQGTTVTVSSASTKGPSVFPLAPSSKSTSGGTAALGCLVKDYFPEPVTVSWNSGALTSGVHTFPAVLQSSGLYSLSSVVTVPSSSLGTQTYICNVNHKPSNTKVDKKV[here human IgG1 Fc with changes without letters]GGGGSGGGGSGGGGSQVQLVQSGAEVKKPGASVKVSCKASGYTFTSYYMHWVRQAPGQGLEWMGNIYPGSGSSNYAQKFQGRVTMTRDTSTSTVYMELSSLRSEDTAVYYCTRSSYYGNFDTMDNWGQGTTVTVSSGGSEGKSSGSGSESKSTGGSDIQLTQSPSFLSASVGDRVTITCRASSSIRYMNWYQQKPGKAPKRLIYDTSTLQSGVPSRFSGSGSGTEFTLTISSLQPEDFATYYCHQRSSYPWTFGGGTKVEIK
heavy 2: EVRLLESGGGLVQPGGSLRLSCAASGFTFSNYAMGWVRQAPGKGLEWVSAISGSGGSTYYADSVKGRFTTSRDDSKNALYLQMNSLRAEDTAVYYCARGGPGWYAADVWGQGTTVTVSS[here human IgG1 constant region with changes without letters]
light: DIQMTQSPSSLSASVGDRVTITCRASQSISSYLNWYQQKPGKAPKLLIYAASSLQSGVPSRFSGSGSGTDFTLTISSLQPEDFATYYCQQADLPAFAFGGGTKVEIKRTVAAPSVFIFPPSDEQLKSGTASVVCLLNNFYPREAKVQWKVDNALQSGNSQESVTEQDSKDSTYSLSSTLTLSKADYEKHKVYACEVTHQGLSSPVTKSFNRGEC
notes: 2+1
Kd (Cyno TfR ECD Avi-His [1]): 100 nM

B3: TfR9.1B.39.40 2+1 anti-TfR bispecific antibody (bispecific antibody, human IgG1, kappa)
heavy 1: EVRLLESGGGLVQPGGSLRLSCAASGFTFSNYAMGWVRQAPGKGLEWVSAISGSGGSTYYADSVKGRFTTSRDDSKNALYLQMNSLRAEDTAVYYCARGGPGWYAADVWGQGTTVTVSSASTKGPSVFPLAPSSKSTSGGTAALGCLVKDYFPEPVTVSWNSGALTSGVHTFPAVLQSSGLYSLSSVVTVPSSSLGTQTYICNVNHKPSNTKVDKKV[here human IgG1 Fc with changes without letters]GGGGSGGGGSGGGGSQVQLVQSGAEVKKPGASVKVSCKASGYTFTEYAMHWVRQAPGQGLEWMGGINPKEGGTSYNQKFKGRVTMTVDTSTSTAYMELSSLRSEDTAVYYCASQGWLLRGGDYWGQGTLVTVSSGGSEGKSSGSGSESKSTGGSDVVMTQSPLSLPVTLGQPASISCKASQSLLDEDQKTYLNWLQQRPGQSPRRLIYLVSKLDSGVPDRFSGSGSGTDFTLKISRVEAEDVGVYYCWQGTHFPQTFGGGTKVEIK
heavy 2: EVRLLESGGGLVQPGGSLRLSCAASGFTFSNYAMGWVRQAPGKGLEWVSAISGSGGSTYYADSVKGRFTTSRDDSKNALYLQMNSLRAEDTAVYYCARGGPGWYAADVWGQGTTVTVSS[here human IgG1 constant region with changes without letters]
light: B1 light
notes: 2+1
Kd (Cyno TfR ECD Avi-His [1]): 570 nM

B4: TfR9.1B.39.37 2+1 anti-TfR bispecific antibody (bispecific antibody, human IgG1, kappa)
heavy 1: EVRLLESGGGLVQPGGSLRLSCAASGFTFSNYAMGWVRQAPGKGLEWVSAISGSGGSTYYADSVKGRFTTSRDDSKNALYLQMNSLRAEDTAVYYCARGGPGWYAADVWGQGTTVTVSSASTKGPSVFPLAPSSKSTSGGTAALGCLVKDYFPEPVTVSWNSGALTSGVHTFPAVLQSSGLYSLSSVVTVPSSSLGTQTYICNVNHKPSNTKVDKKV[here human IgG1 Fc with changes without letters]GGGGSGGGGSGGGGSQVQLVQSGAEVKKPGASVKVSCKASGYTFTEYAMHWVRQAPGQGLEWMGGIAPGTGGTSYNQKFKGRVTMTVDTSTSTAYMELSSLRSEDTAVYYCASQGWLLRGGDYWGQGTLVTVSSGGSEGKSSGSGSESKSTGGSDVVMTQSPLSLPVTLGQPASISCKASQSLLDEEGKTYLNWLQQRPGQSPRRLIYLVSKLDSGVPDRFSGSGSGTDFTLKISRVEAEDVGVYYCWQGTHFPQTFGGGTKVEIK
heavy 2: EVRLLESGGGLVQPGGSLRLSCAASGFTFSNYAMGWVRQAPGKGLEWVSAISGSGGSTYYADSVKGRFTTSRDDSKNALYLQMNSLRAEDTAVYYCARGGPGWYAADVWGQGTTVTVSS[here human IgG1 constant region with changes without letters]
light: B1 light
notes: 2+1
Kd (Cyno TfR ECD Avi-His [1]): 1300 nM

B5: TfR9.1B.39.38 2+1 anti-TfR bispecific antibody (bispecific antibody, human IgG1, kappa)
heavy 1: EVRLLESGGGLVQPGGSLRLSCAASGFTFSNYAMGWVRQAPGKGLEWVSAISGSGGSTYYADSVKGRFTTSRDDSKNALYLQMNSLRAEDTAVYYCARGGPGWYAADVWGQGTTVTVSSASTKGPSVFPLAPSSKSTSGGTAALGCLVKDYFPEPVTVSWNSGALTSGVHTFPAVLQSSGLYSLSSVVTVPSSSLGTQTYICNVNHKPSNTKVDKKV[here human IgG1 Fc with changes without letters]GGGGSGGGGSGGGGSQVQLVQSGAEVKKPGASVKVSCKASGYTFTEYAMHWVRQAPGQGLEWMGGIAPNTGGTSYNQKFKGRVTMTVDTSTSTAYMELSSLRSEDTAVYYCASQGWLLRGGDYWGQGTLVTVSSGGSEGKSSGSGSESKSTGGSDVVMTQSPLSLPVTLGQPASISCKASQSLLDEGGKTYLNWLQQRPGQSPRRLIYLVSKLDSGVPDRFSGSGSGTDFTLKISRVEAEDVGVYYCWQGTHFPQTFGGGTKVEIK
heavy 2: EVRLLESGGGLVQPGGSLRLSCAASGFTFSNYAMGWVRQAPGKGLEWVSAISGSGGSTYYADSVKGRFTTSRDDSKNALYLQMNSLRAEDTAVYYCARGGPGWYAADVWGQGTTVTVSS[here human IgG1 constant region with changes without letters]
light: B1 light
notes: 2+1
Kd (Cyno TfR ECD Avi-His [1]): 1500 nM

The next lines start with the values.

binding result (Cyno TfR ECD Avi-His [2]): binds
B2: TfR9.1B.45 2+1 anti-TfR bispecific antibody (bispecific antibody, human IgG1, kappa)
heavy 1: EVRLLESGGGLVQPGGSLRLSCAASGFTFSNYAMGWVRQAPGKGLEWVSAISGSGGSTYYADSVKGRFTTSRDDSKNALYLQMNSLRAEDTAVYYCARGGPGWYAADVWGQGTTVTVSSASTKGPSVFPLAPSSKSTSGGTAALGCLVKDYFPEPVTVSWNSGALTSGVHTFPAVLQSSGLYSLSSVVTVPSSSLGTQTYICNVNHKPSNTKVDKKV[here human IgG1 Fc with changes without letters]GGGGSGGGGSGGGGSQVQLVQSGAEVKKPGASVKVSCKASGYTFTEYAMHWVRQAPGQGLEWMGGINPNDGGTSYNQKFKGRVTMTVDTSTSTAYMELSSLRSEDTAVYYCASQGWLQRGGDYWGQGTLVTVSSGGSEGKSSGSGSESKSTGGSDVVMTQSPLSLPVTLGQPASISCKSSVSLLDSDGKTYLNWLQQRPGQSPRRLIYLVSKLDSGVPDRFSGSGSGTDFTLKISRVEAEDVGVYYCWQGTHFPQTFGGGTKVEIK
heavy 2: EVRLLESGGGLVQPGGSLRLSCAASGFTFSNYAMGWVRQAPGKGLEWVSAISGSGGSTYYADSVKGRFTTSRDDSKNALYLQMNSLRAEDTAVYYCARGGPGWYAADVWGQGTTVTVSS[here human IgG1 constant region with changes without letters]
light: B1 light
notes: 2+1

Kd (Cyno TfR ECD Avi-His [2]): 220 nM
B6: TfR15.WH9 2+1 anti-TfR bispecific antibody (bispecific antibody, human IgG1, kappa)
heavy 1: EVRLLESGGGLVQPGGSLRLSCAASGFTFSNYAMGWVRQAPGKGLEWVSAISGSGGSTYYADSVKGRFTTSRDDSKNALYLQMNSLRAEDTAVYYCARGGPGWYAADVWGQGTTVTVSSASTKGPSVFPLAPSSKSTSGGTAALGCLVKDYFPEPVTVSWNSGALTSGVHTFPAVLQSSGLYSLSSVVTVPSSSLGTQTYICNVNHKPSNTKVDKKV[here human IgG1 Fc with changes without letters]GGGGSGGGGSGGGGSQVQLVQSGAEVKKPGASVKVSCKASGYTFTSYWMHWVRQAPGQGLEWMGNIYPGSGSSNYAQKFQGRVTMTRDTSTSTVYMELSSLRSEDTAVYYCTRSSYYGNFDTMDNWGQGTTVTVSSGGSEGKSSGSGSESKSTGGSDIQMTQSPSSLSASVGDRVTITCRASSSIRYLNWYQQKPGKAPKRLIYDTSSLQSGVPSRFSGSGSGTDFTLTISSLQPEDFATYYCHQRSSYPWTFGGGTKVEIK
heavy 2: EVRLLESGGGLVQPGGSLRLSCAASGFTFSNYAMGWVRQAPGKGLEWVSAISGSGGSTYYADSVKGRFTTSRDDSKNALYLQMNSLRAEDTAVYYCARGGPGWYAADVWGQGTTVTVSS[here human IgG1 constant region with changes without letters]
light: B1 light
notes: 2+1

binding result (Cyno TfR ECD Avi-His [2]): binds
B7: TfR15.WH12 2+1 anti-TfR bispecific antibody (bispecific antibody, human IgG1, kappa)
heavy 1: EVRLLESGGGLVQPGGSLRLSCAASGFTFSNYAMGWVRQAPGKGLEWVSAISGSGGSTYYADSVKGRFTTSRDDSKNALYLQMNSLRAEDTAVYYCARGGPGWYAADVWGQGTTVTVSSASTKGPSVFPLAPSSKSTSGGTAALGCLVKDYFPEPVTVSWNSGALTSGVHTFPAVLQSSGLYSLSSVVTVPSSSLGTQTYICNVNHKPSNTKVDKKV[here human IgG1 Fc with changes without letters]GGGGSGGGGSGGGGSQVQLVQSGAEVKKPGASVKVSCKASGYTFTSYWMHWVRQAPGQGLEWMGNIYPGSGSSNYAQKFQGRVTLTVDTSTSTVYMELSSLRSEDTAVYYCTRSSYYGNFDTMDNWGQGTTVTVSSGGSEGKSSGSGSESKSTGGSDIQMTQSPSSLSASVGDRVTITCRASSSIRYLNWYQQKPGKAPKRLIYDTSSLQSGVPSRFSGSGSGTDFTLTISSLQPEDFATYYCHQRSSYPWTFGGGTKVEIK
heavy 2: EVRLLESGGGLVQPGGSLRLSCAASGFTFSNYAMGWVRQAPGKGLEWVSAISGSGGSTYYADSVKGRFTTSRDDSKNALYLQMNSLRAEDTAVYYCARGGPGWYAADVWGQGTTVTVSS[here human IgG1 constant region with changes without letters]
light: B1 light
notes: 2+1

binding result (Cyno TfR ECD Avi-His [1]): binds
B8: TfR9.1B.39.39 2+1 anti-TfR bispecific antibody (bispecific antibody, human IgG1, kappa)
heavy 1: EVRLLESGGGLVQPGGSLRLSCAASGFTFSNYAMGWVRQAPGKGLEWVSAISGSGGSTYYADSVKGRFTTSRDDSKNALYLQMNSLRAEDTAVYYCARGGPGWYAADVWGQGTTVTVSSASTKGPSVFPLAPSSKSTSGGTAALGCLVKDYFPEPVTVSWNSGALTSGVHTFPAVLQSSGLYSLSSVVTVPSSSLGTQTYICNVNHKPSNTKVDKKV[here human IgG1 Fc with changes without letters]GGGGSGGGGSGGGGSQVQLVQSGAEVKKPGASVKVSCKASGYTFTEYAMHWVRQAPGQGLEWMGGINPSFGGTSYNQKFKGRVTMTVDTSTSTAYMELSSLRSEDTAVYYCASQGWLLRGGDYWGQGTLVTVSSGGSEGKSSGSGSESKSTGGSDVVMTQSPLSLPVTLGQPASISCKASQSLLDEEGKTYLNWLQQRPGQSPRRLIYLVSKLDSGVPDRFSGSGSGTDFTLKISRVEAEDVGVYYCWQGTHFPQTFGGGTKVEIK
heavy 2: EVRLLESGGGLVQPGGSLRLSCAASGFTFSNYAMGWVRQAPGKGLEWVSAISGSGGSTYYADSVKGRFTTSRDDSKNALYLQMNSLRAEDTAVYYCARGGPGWYAADVWGQGTTVTVSS[here human IgG1 constant region with changes without letters]
light: B1 light
notes: 2+1
